Reference: PubChem BioAssay AID1745845 (National Center for Advancing Translational Sciences (NCATS), 2022)
Several values for one entry are separate records, joined by “and”; a condition that tells them apart may be missing. Equal values may be shown once. About 2,600 (0.72%) of roughly 360,000 compounds were called active. Inconclusive results, whose numbers are uncertain, are shown with a selection of clear calls. Calls come from the whole dose curve; as a rule, active = well fitted inhibition curve with a large enough effect; inconclusive = small, poorly fitted or top-dose-only effect; inactive = no such curve, though single readings can be large or run the other way. Potencies beside an inconclusive call are fits to weak or partial responses and may not hold up. A structure can be active in one record and inactive in another.

Assay: Primary qHTS for Inhibitors of ATXN expression; note: nearly all actives have a fitted effect of over 55% in size
Details: HEK-293 ATXN2-luciferase reporter, luminescence, 24 h; series mostly up to 57 µM
Outline: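 ATXN2-luciferase reporter cells (luciferase flanked by upstream and downstream ATXN2 gene portions) were treated 24 h at 37 °C with compounds at up to 57 uM. SteadyGlo luminescence gave expression; GF-AFC fluorescence gave viability.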
Potency is the fitted concentration of half-maximal effect; tags give direction and shape of the fitted curve.

Potency, inactive and 7.94 µM (active):
O=c1[nH]c(=O)n([C@H]2C[C@H](O)[C@@H](CO)O2)cc1F

Potency, inactive:
CNC(=S)N1CCN(S(=O)(=O)c2ccc3ccccc3c2)CC1, O=C(CCCN1C(=O)/C(=C/c2ccccc2Cl)SC1=S)NCCCN1CCOCC1, C/C(CC1CC(C)(C)OC1=O)=N\NC(N)=S (centres undefined), Cc1ccc(NS(=O)(=O)c2cc(-c3n[nH]c(=O)c4ccccc34)ccc2C)cc1, CCOc1ccc(NC(=O)CN(C)C(=O)c2cccc(S(=O)(=O)N3CCN(C)CC3)c2)cc1OCC, CCOC(=O)C1=C(COC(=O)CCOc2ccccc2C)NC(=O)NC1C (centres undefined), C[C@@]12C(=O)N(c3ccc(C(F)(F)F)cc3)C(=O)N1[C@@H]1c3ccccc3OC[C@@H]1[C@H]2c1ccccc1, O=C(C1CCCN(S(=O)(=O)c2ccccc2[N+](=O)[O-])C1)N1CCCC1 (centres undefined), COCC(=O)Nc1nnc(SCC(=O)NCc2cccs2)s1, CCOc1cc(NC(=S)Nc2ccccc2OC)c(OCC)cc1NC(=O)c1ccccc1C, O=C1CSC(=Nc2ccccc2Cl)N1, CN(C)C(=S)SCC(=O)Nc1ccc(Cl)cc1Cl, Cn1c(=S)n(/N=C/c2ccc3c(c2)OCO3)c2ccccc21, CCOC(=O)N1CCC(N2CCN(S(=O)(=O)c3ccc4ccccc4c3)CC2)CC1, Cc1onc(-c2ccccc2Cl)c1C(=O)Nc1sc2c(c1C(N)=O)CCC(C)C2 (centres undefined), COc1ccc(-c2[nH]ncc2-c2ccc(Cl)cc2)c(O)c1, CCCCN(C(=O)CCCSc1nc2ccccc2[nH]1)c1c(N)n(Cc2ccccc2)c(=O)[nH]c1=O, Cc1ccc(CC2CC(=O)N(c3cc(C)on3)C2=O)cc1 (centres undefined), Cc1cc(NC(=O)c2ccccc2)sc1C

Potency, active:
COC1(OC)C=CC(=O)C=C1NC(=O)c1ccccc1OC(C)=O 17.8 µM, Cc1cc(C)c2c(c1)/C(=C/C(=O)c1ccc(Br)s1)C(=O)N2 17.8 µM

Potency, inconclusive:
COc1ccc2nc(NC(=O)c3ccoc3C)sc2c1 39.8 µM [inhibitor, single point], OC[C@@H]1CN(Cc2ccc(-c3ccccc3)cc2)C[C@H](n2cnc3c(Nc4ccccc4)ncnc32)O1 22.4 µM [inhibitor, partial curve, poor fit], COc1ccc(SC[C@H](C)CN2CC[C@H](C)CCC2=O)cc1 39.8 µM [inhibitor, single point], C[C@H]1C[C@H]2[C@@H]3CCC4=CC(=O)C=C[C@]4(C)[C@@]3(Cl)[C@@H](O)C[C@]2(C)[C@@]1(O)C(=O)CO 35.5 µM [inhibitor, single point], C/C(=N\NC(=O)c1cccc(N/N=C(\C)c2cc(O)ccc2O)c1)c1cc(O)ccc1O 37.7 µM [inhibitor, single point], CC1(C)CC(N2CCCC2)=CC(=[N+]2CCCCC2)C1 2.82 µM [inhibitor, partial curve, poor fit], Cc1c(Cl)cccc1Nc1nc(N)nc(CSc2nc3ccccc3s2)n1 31.6 µM [inhibitor, partial curve, poor fit], Cc1cc(NC(=O)C(C)SCC(=O)Nc2cc(C(F)(F)F)ccc2N2CCCCC2)no1 (centres undefined) 31.6 µM [inhibitor, single point], CCOC(=O)c1c(C)[nH]c(C)c1S(=O)(=O)N1CCC(C(=O)N2CCN(c3cc(C)ccc3C)CC2)CC1 39.8 µM [inhibitor, single point], CC1CCN(S(=O)(=O)c2ccc3c(c2)N(CC(=O)NCCc2ccc(Cl)cc2)C(=O)CO3)CC1 22.4 µM [inhibitor, partial curve], O=C1CSC(=S)N1c1cccc(Cl)c1 12.6 µM [inhibitor, partial curve, poor fit], COc1ccc(C(=O)C=CNNC(=O)c2ccc(Cl)cc2)cc1 39.8 µM [inhibitor, single point], COc1ccc(Br)cc1CNC(=O)C1CCCN(S(=O)(=O)N2CC(C)CC(C)C2)C1 (centres undefined) 25.1 µM [inhibitor, partial curve, poor fit], O=C1c2[nH]nc(-c3ccccc3)c2C(c2ccccc2)N1c1cccc(C(F)(F)F)c1 (centres undefined) 35.5 µM [inhibitor, single point], CC(=O)C1=C(c2ccccc2)N(C(C)=O)n2c(C)nnc2S1 12.6 µM [inhibitor, partial curve, poor fit], CC(=O)c1cccc(NC(=O)C2Cc3c(-c4ccccc4Oc4ccccc4)ccnc3O2)c1 (centres undefined) 14.1 µM [inhibitor, partial curve, poor fit], Cc1sc(NC(=O)CCl)c(C(=O)c2ccccc2)c1C 35.5 µM [inhibitor, single point], Nc1c(N(CCC2=CCCCC2)C(=O)COc2ccc([N+](=O)[O-])cc2)c(=O)[nH]c(=O)n1Cc1ccccc1 12.6 µM [inhibitor, single point], CC(=O)OCCNc1cc(N2CCN(C)CC2)c2noc3c2c1C(=O)c1ccccc1-3 7.94 µM [inhibitor, partial curve, poor fit], COc1cnc(-c2ccccn2)nc1Oc1ccc(Cl)c2ccccc12 31.6 µM [inhibitor, single point], Cc1nc(SCc2ccc(C(=O)O)cc2)nc2c1CCCC2 10 µM [inhibitor, partial curve], COCCCn1c(N)c(-c2nc3ccccc3n2C)c2nc3ccccc3nc21 28.2 µM [inhibitor, single point], O=C(CN1CC(=O)Oc2ccccc21)NCc1ccco1 39.8 µM [inhibitor, single point], Cc1cn([C@@H](CCCCNC(=O)OC(C)(C)C)C(=O)NCCCCCCCCCCC(=O)N2CCN(C(=O)OC(C)(C)C)CC2)nn1 14.1 µM [inhibitor, partial curve], CCOc1cc(-c2noc(-c3ccncc3)n2)cc(Br)c1OC 20 µM [inhibitor, single point], CC1CC(N(C(=O)c2ccc(Cl)cc2)c2ccccc2)c2ccccc2N1C(=O)c1ccco1 (centres undefined) 28.2 µM [inhibitor, partial curve, poor fit], O=C1c2cccc(O)c2C(=O)c2c(O)cc(CO)cc21 13.7 µM [inhibitor, partial curve, poor fit], CC(C)Nc1nc(NC(C)C)nc(N(C#N)CCOc2ccc(Cl)cc2Cl)n1 39.8 µM [inhibitor, single point], CN(C)CCC=C1c2ccccc2C=Cc2ccccc21 31.6 µM [inhibitor, partial curve, poor fit] and 24.3 µM [inhibitor, partial curve, poor fit], OC(c1ccc(Cl)c(F)c1)c1ncc(-c2ccc(Cl)cc2)[nH]1 (centres undefined) 39.8 µM [inhibitor, single point], NC(N)=N/N=C/c1c(Cl)cccc1Cl 28.2 µM [inhibitor, partial curve, poor fit], COc1ccc(CN(C)CC(O)COc2ccc(-c3ccccc3)cc2)cc1OC (centres undefined) 35.5 µM [inhibitor, partial curve, poor fit], CCOc1ccc(-n2c(O)c(/C=N/NC(=O)C3COc4ccccc4O3)c3ccccc3c2=O)cc1 (centres undefined) 25.1 µM [inhibitor, single point], COc1ccc(NS(=O)(=O)c2cccc3ccccc23)cc1 16.8 µM [inhibitor, partial curve, poor fit], O=C(Nc1ccc(C(O)(C(F)(F)F)C(F)(F)F)cc1)c1ccc(Cl)c([N+](=O)[O-])c1 35.5 µM [inhibitor, single point], COc1ccc(S(=O)(=O)N(C)C[C@H]2Oc3c(NC(=O)NC4CCCCC4)cccc3C(=O)N([C@H](C)CO)C[C@@H]2C)cc1 25.1 µM [inhibitor, partial curve, poor fit], Cc1ccc(-c2noc(CSc3nnc(C)n3-c3ccc(C)c(C)c3)n2)cc1 25.1 µM [inhibitor, single point], CCCc1nc2c(C)cc(Br)cn2c1Cc1ccccc1C(F)(F)F 39.8 µM [inhibitor, single point], CN(C)c1ccc(-c2ccnc3c2CC(C)(C(=O)Nc2ccc(Cl)c(C(F)(F)F)c2)O3)cc1 (centres undefined) 8.91 µM [inhibitor, full curve, poor fit], CCCCN(Cc1ccccc1)S(=O)(=O)c1cc2c(cc1Br)CC(C)N2C(C)=O (centres undefined) 31.6 µM [inhibitor, partial curve, poor fit], CCCCN(C)C(=O)CSc1nc2ccccc2nc1Cc1ccc(C)cc1 20 µM [inhibitor, single point], O=C(Nc1ccc2nc(-c3cccs3)c(-c3cccs3)nc2c1)NC1CC1 12.6 µM [inhibitor, partial curve, poor fit]
